Data taken from PMC10668032.
The other results are listed elsewhere or left out. At the low end of the ranking, values are background and their order means little.

These sequences were tested against SIX1 homeodomain (reference allele) (UniProt Q15475) (assay: universal protein binding microarray). Details: Universal all-10-mer PBM (8x60K, AMADID 030236), 300 nM GST-tagged protein, Alexa Fluor 488 anti-GST; buffer, salt, pH and temperature not stated; high values mean tight binding; most listed sequences are background and not binding sites; double strand, one strand shown.

Sequence | binding signal
CCAAGTGC | -0.234 E-score
CAGTTGGC | -0.15 E-score
CGCGAAGC | -0.187 E-score
ACGATCGC | 0.133 E-score
TACACTGA | 0.178 E-score
CTAAGAAG | -0.00928 E-score
ACCAAGAA | -0.134 E-score
CACCGGCC | 0.0599 E-score
ATTGGGGC | 0.0249 E-score
GCAGTAAA | -0.273 E-score
ATTGCTCG | -0.0692 E-score
TAGAACCA | -0.216 E-score
AATATGCA | -0.0465 E-score
CCCTAGCC | 0.00481 E-score
AGCTGGAG | 0.059 E-score
GCTTTCGA | -0.204 E-score
AATCAGCA | -0.215 E-score
AGAAGCAT | 0.00264 E-score
AGCTTCCG | -0.113 E-score
GCCTTATA | 0.0746 E-score
ACGCCAAT | -0.0274 E-score
GAACGAGC | -0.00779 E-score
ATGGTTAA | -0.201 E-score
AAGTTGCT | -0.177 E-score
CAGCAAAC | -0.0651 E-score

Sequence | binding signal
CCAGGTCA | -0.191 E-score
GGGGTGAA | 0.0134 E-score
AAAATGTC | -0.288 E-score
ACACTCTA | 0.0358 E-score
CCCGCGGC | -0.0453 E-score
AATGCCAA | -0.213 E-score
GCTCACAC | -0.0542 E-score
TCGTGGCA | -0.213 E-score
GCCATAGA | -0.0531 E-score
AGACGGGA | 0.2 E-score
AGATGTGA | 0.118 E-score
GAGAGAGC | -0.0912 E-score
GACGCATA | 0.13 E-score
ACTTCCCA | -0.116 E-score
AGACCGGG | 0.00194 E-score
CGATCCAC | 0.375 E-score
GGGATTAA | 0.169 E-score
CACGTTCA | -0.254 E-score
ACGTGTCC | -0.0719 E-score
CGCATGAG | -0.094 E-score
AGCCGGAT | 0.382 E-score
CCATACAG | 0.0667 E-score
CCGGCTCC | 0.0506 E-score
GTCGACAC | 0.0853 E-score
CTCCATCC | -0.175 E-score

Sequence | binding signal
CCTCTAAA | -0.272 E-score
CTTTCTCA | -0.169 E-score
CGGTGGCC | -0.256 E-score
CGGTATAA | 0.294 E-score
CCTATTGA | 0.187 E-score
GTCAGTTA | -0.247 E-score
AAAAGAGA | 0.0301 E-score
TATGCTGA | -0.0917 E-score
GATCACAC | 0.351 E-score
AGACTTTA | -0.136 E-score
GGGCTGAC | -0.077 E-score
GCGAGGCC | -0.239 E-score
AGTTCTTA | -0.0797 E-score
CGTCGACC | -0.0835 E-score
CTTGTAAC | 0.0207 E-score
AACCTTCA | -0.05 E-score
CCTATAGG | -0.0403 E-score
AGCAATAC | 0.298 E-score
AGCTGAGC | 0.00751 E-score
ACTAGGAA | -0.22 E-score
CTTTCCTA | -0.17 E-score
CTCTTGAC | -0.181 E-score
CAGAATTC | -0.203 E-score
ATCAATAG | 0.144 E-score
GTGTGTGA | 0.174 E-score

Sequence | binding signal
TGTTAAAA | -0.186 E-score
ACTAGGTC | 0.0304 E-score
GCGTCACA | -0.0639 E-score
CCGAAATA | 0.0853 E-score
CCACGAGC | -0.0401 E-score
AGTATATG | 0.207 E-score
ATTAGCGC | -0.1 E-score
GAATCCCC | 0.23 E-score
AAGTTCCT | -0.242 E-score
AGAGGCAC | -0.214 E-score
ATAAGGTC | 0.0319 E-score
CGGGTAAC | -4.5e-05 E-score
CTTAGAAA | -0.18 E-score
CAAATCTG | -0.0299 E-score
ACGCTTCG | -0.299 E-score
TAAGCGTA | -0.0857 E-score
CAGAAACA | -0.121 E-score
GTGCAACA | -0.111 E-score
AGGGAAAC | -0.219 E-score
CGTGCGTA | 0.137 E-score
ACCCACGA | 0.129 E-score
AGTCCCGC | -0.265 E-score
AAAGCGAA | 0.032 E-score
AGGGGATG | 0.201 E-score
TATAGAAA | 0.122 E-score

Sequence | binding signal
AGCGCCTA | -0.135 E-score
AAACAGCA | -0.205 E-score
AGCGTTAA | -0.275 E-score
CAGCGTAG | -0.259 E-score
CGAGAATC | 0.00877 E-score
AGGACTCA | -0.1 E-score
CACCTCTA | 0.137 E-score
AGGAAGCA | -0.136 E-score
ACGTCTCC | 0.0789 E-score
ACAGTGGG | -0.0214 E-score
GTCGCAAC | -0.363 E-score
ACAACTAG | -0.115 E-score
GCAGACAC | 0.0398 E-score
ACCACCCC | -0.0158 E-score
AGGCGGTA | 0.119 E-score
AGATGCGA | 0.136 E-score
CGGTAAAG | -0.179 E-score
AAGGATCG | 0.349 E-score
AGCTACGG | -0.071 E-score
CAGTCTGG | -0.172 E-score
GAACTACA | -0.0323 E-score
ACGTCACC | -0.0983 E-score
AAATAAGG | -0.187 E-score
ATCATTCA | 0.191 E-score
TTGCACAA | -0.23 E-score

Sequence | binding signal
TAGGCCAA | -0.0625 E-score
AACGATTC | 0.105 E-score
CCTGCCCC | -0.0828 E-score
CCATACGC | 0.136 E-score
CGTCTTGC | -0.0642 E-score
AGATCGCT | 0.265 E-score
ATGGGGAA | 0.0441 E-score
TGCTGTAA | -0.0938 E-score
AAATCGCT | -0.359 E-score
GGATCCCC | 0.419 E-score
AACTGGCC | -0.136 E-score
ATCAAACA | 0.173 E-score
CCAGGAGC | -0.238 E-score
AGCTGACC | 0.0424 E-score
ACTGAGAG | 0.0224 E-score
AGCCTGAA | -0.0467 E-score
GATAAGTA | 0.151 E-score
CAGCCGTC | -0.168 E-score
AGGTACCC | -0.102 E-score
TGCGTGAA | -0.000915 E-score
AGCGCGCC | -0.303 E-score
CTCGTACA | 0.093 E-score
AGATTGGA | 0.0364 E-score
GATAGTGA | 0.231 E-score
AATATACG | 0.162 E-score

Sequence | binding signal
ACATGACG | -0.13 E-score
ATTCATCA | -0.0654 E-score
ATTATAAT | 0.151 E-score
AAGTCGGC | -0.157 E-score
AAAGAAAG | -0.227 E-score
AAGCCAGA | -0.175 E-score
AAAGAAGT | -0.0587 E-score
AATTACGA | -0.0294 E-score
GACATCAA | -0.17 E-score
CGAACAAA | 0.00016 E-score
AATTTGTC | -0.134 E-score
CAATGAAG | -0.312 E-score
GATGCTAC | 0.0971 E-score
CCGATGGA | -0.0177 E-score
GGATACAC | 0.405 E-score
TCCCTTCA | 0.074 E-score
GGGACCCA | -0.205 E-score
GAAGCCTA | 0.11 E-score
ATGTTCAC | -0.0575 E-score
AATGAGAG | 0.00217 E-score
CAACGGCG | -0.239 E-score
AATTCGTG | -0.109 E-score
